This is one part of the list.

The chains are these.
B1: chr9:34635388:34635489:-|3pUTR|ENSG00000147955|msi1|total|mutant (ssRNA)
RNA: GGGAGUUCUACAGUCCGACGAUCGGGAUAUCCAUGCUUAUGUAUCCAAACACAGAGACCCAUGGGAACAAAUGAGACACAUACCGAUACUGAGACCUGUGUGUACAGCCGGACCAUGCACUCACACCCAUCUGGAGAGGGAGCCAACAGAGGAUUGAGCAUCA
B2: chr3:10101824:10101929:+|3pUTR|ENSG00000144554|unk|FALSE|unique (ssRNA)
RNA: GGGAGUUCUACAGUCCGACGAUCAAAAUCUCUGAGUCAUGAUUCUGGACUUUGGGAGCUAGUUUUGAAACUCUGAUUUAUUGUAGAACUUAGGCUUGUACCAAUUUUACAAAUAAAUUCUGUUCUAAGUUCUGCCUCAGUUGCCAACAGAGGAUUGAGCAUCA
B3: chr17:63766011:63766126:-|CDS|ENSG00000108588|unk|FALSE|unique (ssRNA)
RNA: GGGAGUUCUACAGUCCGACGAUCGGUGUUUGGGAGUGUCUCUGAAGCCAAGUUUGAUGAUUUUGAGGAUGAGGAGGACAUAGUAGAGUAUGAUGAUAAUGACUUCGCUGAAUUUGAGGAUGUCAUGGAAGACUCUGUUACUGACAACAGAGGAUUGAGCAUCA
B4: chr4:48851844:48851957:+|CDS|ENSG00000109180|unk|FALSE|unique (ssRNA)
RNA: GGGAGUUCUACAGUCCGACGAUCAUAUGACUCAAGUGUGAGUGGUCAAUCAUCUUUUGUGACAUCCCCAGCAGCAGACAACAUAGAAAUGCUUCCUCAUUAUGAGCCAAUUCCAUUCAGUUCUUCUAUGAAUGAAUCUGCUCCCAACAGAGGAUUGAGCAUCA
B5: chr19:41259979:41260080:+|3pUTR|ENSG00000167601|msi1|FALSE|unique (ssRNA)
RNA: GGGAGUUCUACAGUCCGACGAUCCCUGUCUUCCUACCUAUCCCACCUCCAUCCCAGACAGGUCCCUCCCCUUCUCUGUGCAGUAGCAUCACCUUGAAAGCAGUAGCAUCACCAUCUGUAAAAGGAAGGGGUUGGAUUGCAAUACAACAGAGGAUUGAGCAUCA
B6: chr1:227780961:227781062:+|3pUTR|ENSG00000143740|unk|total|mutant (ssRNA)
RNA: GGGAGUUCUACAGUCCGACGAUCCCUGGAAGAGGCCGCCCUCGUCUUGUCUCGGCUCCCUUUCAUGGACAGACUGGCCUUCUCCGCUGUACUAUAAAUUUGUGAGUGAAGUCCGAGCCCAGCUCACUCCGCCAGCUCACUUUGCAACAGAGGAUUGAGCAUCA
B7: chr4:183512276:183512377:+|3pUTR|ENSG00000168556|unk|FALSE|unique (ssRNA)
RNA: GGGAGUUCUACAGUCCGACGAUCCUGCUUGUUUUGGGAAAAAAAAAUGCUUUUUUUCUCUUCUAGCUCUCCUGUGUGACUUUUAGGCAUGUCAUUUCACCUUGUCUGGGUGUCAGGUCAUUCACCUGUAAAAUGAGUUGGCUUCAACAGAGGAUUGAGCAUCA
B8: chr9:125437660:125437767:-|3pUTR|ENSG00000119487|unk|FALSE|unique (ssRNA)
RNA: GGGAGUUCUACAGUCCGACGAUCUGAUGUCCUUACUGUCCCCAGCCAGGGCCGGGGACCGGUGUUUCACUGAGGACCUGCAUUAGAAACAUUUUUUAAAUUGUUGUACAGGAAGAGAUGUGUCUAAAACAGCAUCUUAAAGCUCAACAGAGGAUUGAGCAUCA
B9: chrX:41141081:41141111:+|CDS|ENSG00000124486|msi1_unk|FALSE|overlapping (ssRNA)
RNA: GGGAGUUCUACAGUCCGACGAUCCACUCUUCAUACAGUGAAAAAGUACUUUCUUCCAAUAAUAGAAAUGGUUCCACAGUUUUUAGAAAACUUAACUGAUGAAGAACUGAAAAAAGAAGCAAAGAAUGAAGCCAAAAAUGAUGCCAACAGAGGAUUGAGCAUCA
B10: chr7:30424526:30425710:-|three_prime_utr|ENSG00000106100|control|control|control (ssRNA)
RNA: GGGAGUUCUACAGUCCGACGAUCAAACUCCCUAAGUACCCGCUACAAUUCUGCAGAAAAAGAAUGUGUCUUGCGAGCUGUUGUAGUUACAGUAAAUACACUGUGAAGAGACUUUAUUGCCUAUUAUAAUUAUUUUUAUCUGAACAACAGAGGAUUGAGCAUCA
B11: ENSG00000136451:be:win_351|CDS|ENSG00000136451|bound_else_gene|NA|bound_elsewhere_windowed (ssRNA)
RNA: GGGAGUUCUACAGUCCGACGAUCUACCAUCGCUGGGGACAGCAGCCGAACUUCGUUGGUCUCGACCAUUGCAGGCAUCUUGUCAACAGUCACUACAUCUUCCUCGGGCACCAACCCCAGUAGCAGUGCCAGCACCACAGCUAUCAACAGAGGAUUGAGCAUCA
B12: chr16:14644374:14644495:+|CDS|ENSG00000103429|unk|total|mutant (ssRNA)
RNA: GGGAGUUCUACAGUCCGACGAUCAACACAAUGGACCUUGAGAGAGAUGAACCUCUCAAAAGCACCGGCCCUCAGAUUUCUGUCCGUGAAUUUUCUUGCCACUGCUGCUACGACAUCCUGGUUAACCCCACCACCUUGAACUGUCAACAGAGGAUUGAGCAUCA
B13: chr1:11013840:11013957:+|CDS|ENSG00000120948|unk|total|mutant (ssRNA)
RNA: GGGAGUUCUACAGUCCGACGAUCGGCGUGUGGGCUUCGCUACAGGAAUCCAGUGUCUCAGUGUAUGAGAGGUGUCCGGCUGGCCGAAGGAAUUCUGCAUGCCCCAGAUGCUGGCUGGGGAAAUCUGGUGUAUGUUGUCAACUACAACAGAGGAUUGAGCAUCA
B14: chr17:68278117:68278284:-|CDS|ENSG00000108932|unk|FALSE|unique (ssRNA)
RNA: GGGAGUUCUACAGUCCGACGAUCGCUUUGUUCCAAAGCCAAUGUGUAUACUGAAGUGCCUGAUGGAGGAUGGGGCUGGGCGGUAGCUGUUUCAUUUUUCUUCGUUGAAGUCUUCACCUACGGCAUCAUCAAGACAUUUGGUGUCAACAGAGGAUUGAGCAUCA
B15: chr8:143915815:143915916:-|3pUTR|ENSG00000178209|msi1|total|mutant (ssRNA)
RNA: GGGAGUUCUACAGUCCGACGAUCGCCAGGUGCCUUGGAGGGUCCCAAGCUGGGCCCCAGCCCACCCUCCUGUCUUCCCAGGGCCGCCCGCCUGCCAGUCCCCGCUGCACAGGGCAGCUGGGCCCAACCCUGUCUGCCGAGGGCCAACAGAGGAUUGAGCAUCA
B16: chr7:77779054:77779164:+|CDS|ENSG00000187257|unk|FALSE|unique (ssRNA)
RNA: GGGAGUUCUACAGUCCGACGAUCUAAAUUUGAAAAUAGCAACAAAGAUUUAAAGGAAGAAUUGUGCCCUGGAAAUCUAAGUCUAGUUGAUACAAGGCAACACAGUUCAGCACAUUCAAAUCAAGAUAAAAAAGACGAUGACAUCAACAGAGGAUUGAGCAUCA
B17: chr17:18209558:18209659:+|3pUTR|ENSG00000091542|msi1|total|mutant (ssRNA)
RNA: GGGAGUUCUACAGUCCGACGAUCGGCCGCUUCUAUCCACUCAGAUCCUGGAAGGCAGCAAGGUUUUGUGGAUCCCGAUUCAUCCGGAAUGUCUUCUUGUCAGCCAGGCCAGGACCCGGGCUUGCCAAGAGCAGAGGCCCUCCCCAACAGAGGAUUGAGCAUCA
B18: chr15:90931683:90931944:-|CDS|ENSG00000184508|control|control|control (ssRNA)
RNA: GGGAGUUCUACAGUCCGACGAUCGACAAGACUCUGCCCAAGCUGGAGAGAAAGAGGCUGCAGGUGGAGCAAGCGCCCCACAGUAGCCCCGGGGCCAAACUGGUGAAGCUGGCAGACAAGCUGUACAAUCUGAGGGACCUGAAUCAACAGAGGAUUGAGCAUCA
B19: chr7:20412070:20412171:+|3pUTR|ENSG00000105855|msi1|total|mutant (ssRNA)
RNA: GGGAGUUCUACAGUCCGACGAUCCUUUUUUUUUAUAAUAAACUUCCAAGAUUUGCUGUCUUCCAGCACUUGAGUUAAAGUACCCGAUACUGCAUUUUGAUGAAGACUAACCCCAUCUCAUAUUCUACCCUAAAGAGAACUGAACAACAGAGGAUUGAGCAUCA
B20: chr7:88197266:88197367:+|3pUTR|ENSG00000008277|unk|total|mutant (ssRNA)
RNA: GGGAGUUCUACAGUCCGACGAUCCAAAACAUGUGAUAUCCCUUUAACCUGUGCACAGUCUGGAGGCAGUUUUAUUGAGUGAGCCGUUGAGUGAGAGAACAAAAUGCCCAGCAAAACUUCUGGCCUCCACAGUUUGCUGAUGCACAACAGAGGAUUGAGCAUCA
B21: chr3:122768741:122768856:-|CDS|ENSG00000169087|unk|FALSE|unique (ssRNA)
RNA: GGGAGUUCUACAGUCCGACGAUCACAUGUAAUUACGUAGAAGCUACACUCGAAGAGUUUCUGACCUGGAACUGUGACCAGUCUAGUAUUUCUGGACCAUUUAGAGAUUAUGACCAUUCCAAGUUCUGGGCUUAUGCUGACUAUCAACAGAGGAUUGAGCAUCA
B22: chr1:17067826:17067927:-|3pUTR|ENSG00000117115|msi1|FALSE|unique (ssRNA)
RNA: GGGAGUUCUACAGUCCGACGAUCCCAGAUUCAUUCCCUGGCUCCAACUGAAAAGACUCAGUUUCAAUCGUUAAAAGUUCCUUUAGGGCCAGAAGAAUAAAUGAAUUAUAAUCCCAUUUUGAAGAACCGAUUUAUAACCAAUGACAACAGAGGAUUGAGCAUCA

For this assay, the target named is MSI1 full-length (mouse, UniProt Q61474 1-362). The assay can be described thus: nsRBNS (natural sequence RNA bind-n-seq); RBNS binding buffer (assumed for nsRBNS): 25 mM Tris pH 7.5, 150 mM KCl, 3 mM MgCl2, 0.01% Triton X-100, 500 ug/ml BSA, 20 U/ml SUPERase-In, 4 C; UNK is unkempt and MSI1 is Musashi-1; names of the RNAs are library labels; protein concentration not given here; high values mean tight binding.
Chain of UniProt Q61474 (Q61474 whole entry): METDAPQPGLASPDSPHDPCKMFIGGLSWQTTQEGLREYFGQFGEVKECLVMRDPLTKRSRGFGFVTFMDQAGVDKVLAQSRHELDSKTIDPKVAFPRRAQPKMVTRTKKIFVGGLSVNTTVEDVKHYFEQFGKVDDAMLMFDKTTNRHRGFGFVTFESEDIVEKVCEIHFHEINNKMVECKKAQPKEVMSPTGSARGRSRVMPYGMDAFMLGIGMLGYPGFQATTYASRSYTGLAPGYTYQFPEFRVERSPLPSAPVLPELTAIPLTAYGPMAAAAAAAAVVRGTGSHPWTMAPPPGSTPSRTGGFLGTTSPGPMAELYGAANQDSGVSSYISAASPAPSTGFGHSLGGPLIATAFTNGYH
In the case of B1, the binding signal was 0.561 enrichment R.
Next, B2: 0.376 enrichment R.
With B3, the binding signal amounted to 0.458 enrichment R.
For B4 the value was 0.341 enrichment R; for B5, 0.891 enrichment R; for B6, 0.459 enrichment R.
Molecule B7 came in with a binding signal of 0.321 enrichment R.
Next, B8: 0.359 enrichment R.
For B9 the value was 2.68 enrichment R; for B10, 3.46 enrichment R; for B11, 0.413 enrichment R.
For B12 the value was 0.46 enrichment R; for B13, 0.587 enrichment R; for B14, 0.463 enrichment R.
In turn, B15 gave a binding signal of 0.457 enrichment R.
In the case of B16, the binding signal was found to be 1.22 enrichment R.
Next, B17: 0.486 enrichment R.
Next, B18: 0.446 enrichment R; B19: 0.673 enrichment R.
Take B20: the binding signal stood at 0.524 enrichment R.
Next, B21: 0.941 enrichment R; B22: 0.642 enrichment R.
